96 compounds from ChEMBL document CHEMBL1156829 can be followed below.

Several values for one entry are separate records, joined by “and”; a condition that tells them apart may be missing. Equal values may be shown once. In all, about 5,400 compounds were measured (“IFI”: median about 2, highest 2% from about 22 on). The list shows a part of the results.

The nature of the experiment: NOVARTIS: Inhibition Frequency Index (IFI) - the number of HTS assays where a compound showed > 50% inhibition/induction, expressed as a percentage of the number of assays in which the compound was tested. The format is functional.
Turning to `CCCC(CCC)C(=O)Nc1ccc2c(c1)N(C(=O)CCCl)c1ccccc1CC2`, the IFI was determined as 1.89%.
The same measure for `COc1cc(NC(C)CCCN(Cc2ccc(F)cc2)C(=O)Nc2ccc(Br)cc2)c2ncccc2c1` (stereo unspecified): 3.77%.
Turning to `COc1ccc(C(=O)Nc2ccc(-c3nc4ccc(NC(=O)c5ccc(OC)cc5)cc4[nH]3)cc2)cc1`, the IFI was determined as 12.8%.
Regarding `COc1ccc(C=NN=C2NC(=O)C(CC(=O)Nc3ccccc3)S2)cc1OC` (stereo unspecified), the IFI stood at 0%.
Compound `CCc1cc2c3c(c1)C1(C(=O)N3C(C)(C)CC2C)C(C#N)=C(N)Oc2cc(C)oc(=O)c21` (stereo unspecified) yielded an IFI of 0%.
The compound `Cc1occc1C(=O)NN=C/C(Br)=C/c1ccccc1` displayed an IFI of 0%.
As to `CC(C)CN1C(=O)c2ccccc2C(C(=O)Nc2ccc(F)c(Cl)c2)C1c1cccs1` (stereo unspecified), the IFI worked out at 3.12%.
In the case of `Cc1ccn2c(NC(C)(C)CC(C)(C)C)c(-c3ccccc3OC(=O)CCc3ccccc3)nc2c1` it was 3.74%; in that of `O=C(OCCOc1ccc([N+](=O)[O-])cc1)c1ccc(Br)o1`, 0.769%.
The same measure for `Nc1ccc(Nc2ccc(N)cc2)cc1`: 3.94%; for `C1=C(c2ccccc2)CCN(c2ncnc3c2nc2n3CCCCC2)C1`: 7.69%.
For `CCc1nn(-c2ccccc2)c2nc(-c3cc(Br)ccc3O)c3cc(OC)c(OC)cc3c12`, the IFI was found to be 0%.
The same measure for `CCOc1cc(/C=C(\C#N)c2nc3ccccc3[nH]2)ccc1OCc1ccccc1C#N`: 0%; for `CCCOC(=O)C1=C(C)NC2=C(C(=O)CC(c3ccc(OC)c(OC)c3)C2)C1c1cccc([N+](=O)[O-])c1` (stereo unspecified): 2.44%.
In the case of `CC(C)CC1=Nc2cc(C(=O)NCc3ccccc3)ccc2CN1Cc1cccnc1`, the IFI came to 3.8%.
The same measure for `C[C@H](Nc1cncc(-c2ccc(Cl)cc2)n1)c1ccccc1`: 0%; for `CCOc1ccc(C(=O)Nc2cc(OC)ccc2OC)cc1`: 0%.
The same measure for `CCC(C)(C)C1CCc2c(sc(NC(=O)c3ccc(F)cc3)c2C(N)=O)C1` (stereo unspecified): 0%; for `COc1ccc(N2C(=O)c3cccnc3C2=O)cc1`: 1.15%; for `Cc1ccc2nc3c(c(NCCCN(C)C)c2c1)CCC3`: 15.4%.
In the case of `CC(C)(C)c1ccc(C(=O)N2CCCn3cccc3C2c2ccc(C(C)(C)C)cc2)cc1` (stereo unspecified), the IFI turned out to be 4.59%.
`COc1ccc(NC(=O)COc2ccccc2C(C)C)c(OC)c1` registered an IFI of 1.49%.
In turn, `O=C(NCc1ccccc1)c1cnc(NCCCn2ccnc2)nc1NCC1CCCCC1` displayed an IFI of 2.91%.
As to `COc1ccc2cc3[n+](cc2c1OC)CCc1cc2c(cc1-3)OCO2`, the IFI was 1.84%.
The same measure for `Cc1c2oc3c(C)ccc(C(=O)N[C@@H]4C(=O)N[C@H](C(C)C)C(=O)N5CCC[C@H]5C(=O)N(C)CC(=O)N(C)[C@@H](C(C)C)C(=O)O[C@@H]4C)c3nc-2c(C(=O)N[C@@H]2C(=O)N[C@H](C(C)C)C(=O)N3CCC[C@H]3C(=O)N(C)CC(=O)N(C)[C@@H](C(C)C)C(=O)O[C@@H]2C)c(N)c1=O`: 18% and 20.3%; for `COc1ccc(CNC(=O)C2CNCC2c2ccc(C(F)(F)F)cc2)cc1` (stereo unspecified): 1.41%; for `O=C(CCCOc1ccc(Cl)cc1Cl)NCCCn1ccnc1`: 1.56%.
In the case of `CC1=CC(=C(C#N)c2nc3ccccc3s2)C=C(C)N1c1ccc2c(c1)OCO2` it was 3.12%.
`COc1ccc(/C=C2/SC(=N)N(c3ccccc3OC)C2=O)cc1` yielded an IFI of 2.35%.
The same measure for `CCc1ccc(C(Nc2cc(C)ccn2)c2ccc3cccnc3c2O)cc1` (stereo unspecified): 14.3%.
The same measure for `CCN(CC(=O)N1CCc2cc(OC)c(OC)cc2C1C)C(=O)Nc1ccc(Br)cc1` (stereo unspecified): 2.83%; for `CCOC(=O)C1=C(C)NC2=C(C(=O)C(C(=O)OCC)C(c3cccc(OC)c3)C2)C1c1cc(OC)c(OC)c(OC)c1` (stereo unspecified): 3.53%.
Compound `COc1ccc(NC(=O)Cn2ncc3ccccc32)cc1OC` returned an IFI of 2.13%.
The same measure for `Cc1ccc(-c2cn3ccccc3[n+]2-c2ccccc2)cc1`: 6.52%.
`COc1ccc(CCN2C(=O)N(CCN(C)C)C(=O)C23CCN(Cc2ccc(O)cc2)CC3)cc1` had an IFI of 2.41%.
The same measure for `N#CC(C#N)C(/C(Sc1ccc([N+](=O)[O-])cc1)=C(/O)c1ccccc1)c1cccs1` (stereo unspecified): 0%; for `CCOc1ccc(-c2nc(NC(=O)Cc3cccc(OC)c3)sc2C)cc1`: 3.23%.
Consider `C=C1C=CN(Cc2ccccc2)c2ccc(OC)cc21`, for which the IFI amounted to 0%.
In the case of `Clc1ccc(-c2csc3ncnc(NCc4ccncc4)c23)cc1` it was 0%.
The same measure for `COC(=O)C1=C(C(=O)OC)SC(=C2C(=S)C(C)(C)Nc3cc(C)ccc32)S1`: 0%; for `COc1ccc2cc(C(C)=NO)ccc2c1`: 1.61%; for `COc1cc(NC(C)CCCN(Cc2ccc(F)cc2)C(=O)C(C)(C)CCl)c2ncccc2c1` (stereo unspecified): 1.05%.
In the case of `CCC(c1nc2ccccc2c(=O)n1-c1ccc(F)cc1)N(CCc1ccccc1)C(=O)COc1ccccc1` (stereo unspecified) it was 1.07%; in that of `CCCNC1=C(N(C(C)=O)c2cccc(F)c2)C(=O)c2ccccc2C1=O`, 21.4%.
In turn, `Cc1cccc(N2C(=O)C3C(C2=O)C2(c4ccccc4)C(=O)C3(c3ccccc3)C(c3ccc4c(c3)OCO4)=C2c2ccc3c(c2)OCO3)c1` (stereo unspecified) had an IFI of 0%.
In the case of `COc1cc(NC(C)CCCN(Cc2ccc(OC)c(OC)c2)C(=O)Nc2cccc(Cl)c2Cl)c2ncccc2c1` (stereo unspecified) it was 6.42%.
The same measure for `O=C(NCCCCCCNC(=O)Nc1ccc(C2=NCCCN2)cc1)Nc1ccc(C2=NCCCN2)cc1`: 5.41%; for `CCOC(=O)c1c(C)n(-c2ccccc2)c2ccc(OC(=O)c3ccco3)cc12`: 0%.
In the case of `CSc1nnc(-c2cccc([N+](=O)[O-])c2)n1Cc1ccccc1` it was 0%.
With `Oc1c2c(nc3cc(-c4ccccc4)nn13)CCCC2`, the IFI came out at 7.14%.
As to `COc1ccc(-c2c[n+](CC(=O)c3ccc([N+](=O)[O-])cc3)c3n2CCC3)cc1`, the IFI came to 2.5%.
The same measure for `CCSCCOC(=O)C1=C(C)NC2=C(C(=O)CCC2)C1c1ccc(OC)c(Br)c1` (stereo unspecified): 2.33%.
The same measure for `Cc1nc(NCCCN(C)C)c2sc3nc4c(cc3c2n1)COC(C)(C)C4`: 2.98%; for `O=C(COC(c1cccs1)c1cccnc1Cl)N1CCN(CCO)CC1` (stereo unspecified): 3.92%.
`O=C(NCCCCNc1ccnc2cc(Cl)ccc12)c1ccccc1Cl` had an IFI of 2.78%.
The same measure for `O=C(CCl)Nc1ccc2c(c1)OCO2`: 0%; for `CCCOC(=O)C1=C(C)NC2=C(C(=O)CC(c3ccc(OC)c(OC)c3)C2)C1c1cccc(C)c1` (stereo unspecified): 4.71%; for `COc1cc(CN2CCC3(CC2)CC3C(=O)NCCc2ccccc2OC)ccc1O` (stereo unspecified): 0%.
`N=c1c2c(n(Cc3cccc(Cl)c3)c3c1CCC3)CCCC2` gave an IFI of 14.3%.
The same measure for `COc1cc(C(Nc2ccccn2)c2ccc3cccnc3c2O)cc(Br)c1OC` (stereo unspecified): 13%.
In the case of `O=C(Nc1ccc(Cl)c(Cl)c1)Nc1ccc(Cl)c(Cl)c1` it was 6.06%; in that of `COc1cccc(C(=O)N(C)CCCNc2ccnc3cc(Cl)ccc23)c1`, 1.85%.
In the case of `O=C(Nc1ccc(Cl)cc1)c1c2c(nc3ccccc13)-c1ccccc1CC2` it was 0%; in that of `O=C1c2ccccc2C2=Nc3ccccc3SC(c3ccccc3F)C12` (stereo unspecified), 0%; in that of `Cc1ccnc(NS(=O)(=O)c2ccc(NC(=O)C(C)C)cc2)n1`, 0%.
As to `O=c1c(=O)n(Cc2cccc(C(F)(F)F)c2)ccn1CCc1ccccc1`, the IFI is 2.22%.
In the case of `COc1ccc(C(=O)Oc2ccccc2-c2nc3cc(C)ccn3c2NC(C)(C)CC(C)(C)C)c(OC)c1` it was 1.06%; in that of `CC1CCC(Nc2ccnc3cc(Cl)ccc23)CC1` (stereo unspecified), 6.17%; in that of `Nc1nc(N)c2cc(S(=O)(=O)N3CCCC3)ccc2n1`, 11.7%.
`O=C1C(=Cc2cc([N+](=O)[O-])cc(Br)c2O)C(=O)c2ccccc21`: the IFI turned out to be 7.69%.
In the case of `COc1cc2c(-c3cc(Br)ccc3O)nc3c(c(-c4ccccc4)nn3-c3ccccc3)c2cc1OC` it was 3.03%; in that of `N#Cc1c(-c2ccccc2)cc(N2CCN(C3CCCCC3)CC2)n2c1nc1ccccc12`, 0%.
The same measure for `CCCCNC(=O)C(c1cccc(OC)c1)N1C(=O)c2cc(Oc3ccccc3)ccc2NC(=O)C1CO` (stereo unspecified): 3.03%; for `FC(F)(F)c1ccc(-c2nc(C34CC5CC(CC(C5)C3)C4)cs2)cc1`: 4.25%; for `Cc1ccc(O)c(NC(=O)c2cnn3c(C(F)(F)F)cc(-c4ccc(Br)cc4)nc23)c1`: 0%.
`COc1ccccc1CCNCc1cc(-c2ccc(F)cc2)ccc1O` showed an IFI of 0.909%.
The same measure for `CCCN(CC(=O)Nc1cc(C(C)(C)C)nn1-c1cccc(C)c1C)C(=O)C1CCCCC1`: 0.909%; for `O=C(O)CC/C(=C1/C=C(c2ccc(Cl)cc2)NC1=O)c1ccc(Cl)cc1`: 7.69%; for `CCCN(CCC)S(=O)(=O)c1cc(Br)cc2c1N(C(=O)CC)CC2`: 0%.
In the case of `CC(C)c1ccc(NC(=O)c2ccc(NCCCN3CCN(c4cccc(Cl)c4)CC3)c([N+](=O)[O-])c2)cc1` it was 0%; in that of `COc1cc2nc(SCC(C)C)n(CCCn3ccnc3)c(=N)c2cc1OC`, 2.38%.
In the case of `C/C(C=C1Sc2ccc3ccoc3c2N1CCO)=C\c1sc2ccc3occc3c2[n+]1CCO` it was 14.3%.
`O=[N+]([O-])c1cccc(Cl)c1N1CCN(S(=O)(=O)Cc2ccccc2)CC1` showed an IFI of 0%.
The same measure for `CN(CCCNc1ccnc2cc(Cl)ccc12)C(=O)c1cc(Cl)cc(Cl)c1`: 1.71%.
In turn, `COc1cc(C(=O)NC2CC3CCC(C2)N3C2CC2)cc(OC)c1OC` (stereo unspecified) gave an IFI of 0%.
In the case of `CCN(CC)c1ccc2c(C)cc(Nc3ccccc3)[o+]c2c1` it was 7.69%; in that of `COc1ccccc1N1C(=N)S/C(=C/c2ccc(N(C)C)cc2)C1=O`, 15.4%.
Turning to `CCCCCC[P+](N(CCC)CCC)(N(CCC)CCC)N(CCC)CCC`, the IFI came out at 29.1%.
The same measure for `COc1cc(CN(CC[C@H](c2ccccc2)c2c(O)ccc3ccccc23)Cc2ccccc2)cc(OC)c1`: 3.64%; for `COc1ccc(-n2c(CNC(=O)c3cccc4ccccc34)n[nH]c2=S)cc1`: 0%; for `COc1ccc(/C=C2\SC(=N)N(c3ccc4c(c3)OCO4)C2=O)cc1OC`: 2.44%.
In the case of `NCCCC[C@H]1C(=O)Nc2ccc(O)cc2C(=O)N1C(C(=O)NCC(=O)O)c1cccnc1` (stereo partly specified) it was 1.18%.
As to `O=C(NCCCCNc1ccnc2cc(Cl)ccc12)C(c1ccccc1)c1ccccc1`, the IFI turned out to be 3.77%.
`CCCN(Cc1cc(OC)c2c(c1)OCO2)CC1CC1` showed an IFI of 0%.
On to `COc1cc(OC)cc(C(=O)N2CCN(c3ccccn3)CC2)c1`, for which the IFI turned out to be 7.69%.
In the case of `Cc1cc(Br)cc(Cl)c1OC(=O)c1ccno1` it was 1.65%.
